According to publication PMC10185812:
Where a chain is given by its changes, count along the chain named. No constants are given. Whether binding was seen depends on the method and setting. Binding seen in cells or lysates may run through a third protein. Some binding calls cover weakened binding; strength is not graded here. Where a sequence is shown, tags or fusion partners need not be part of it. One block for each binder: values may come before it.

Key:
Assay in all cases: co-IP; ARPE-19 transiently co-transfected with tagged C21ORF2 (GFP or 3xHA) and 3xFLAG-NEK1 (full length, truncated or mutated); immunoprecipitation with anti-FLAG antibodies; washes with 500 mM NaCl, 1% Triton X-100; immunoblotting
[1] = molecular target: T1, 3xFLAG-NEK1 1,160-1,286 (human) (UniProt Q96PY6)
T1 sequence: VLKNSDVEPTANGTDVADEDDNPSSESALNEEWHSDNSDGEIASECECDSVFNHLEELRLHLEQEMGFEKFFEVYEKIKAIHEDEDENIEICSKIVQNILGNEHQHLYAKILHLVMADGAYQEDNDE

[2] = molecular target: T2, 3xFLAG-NEK1 R261H (human) (UniProt Q96PY6)
T2 sequence: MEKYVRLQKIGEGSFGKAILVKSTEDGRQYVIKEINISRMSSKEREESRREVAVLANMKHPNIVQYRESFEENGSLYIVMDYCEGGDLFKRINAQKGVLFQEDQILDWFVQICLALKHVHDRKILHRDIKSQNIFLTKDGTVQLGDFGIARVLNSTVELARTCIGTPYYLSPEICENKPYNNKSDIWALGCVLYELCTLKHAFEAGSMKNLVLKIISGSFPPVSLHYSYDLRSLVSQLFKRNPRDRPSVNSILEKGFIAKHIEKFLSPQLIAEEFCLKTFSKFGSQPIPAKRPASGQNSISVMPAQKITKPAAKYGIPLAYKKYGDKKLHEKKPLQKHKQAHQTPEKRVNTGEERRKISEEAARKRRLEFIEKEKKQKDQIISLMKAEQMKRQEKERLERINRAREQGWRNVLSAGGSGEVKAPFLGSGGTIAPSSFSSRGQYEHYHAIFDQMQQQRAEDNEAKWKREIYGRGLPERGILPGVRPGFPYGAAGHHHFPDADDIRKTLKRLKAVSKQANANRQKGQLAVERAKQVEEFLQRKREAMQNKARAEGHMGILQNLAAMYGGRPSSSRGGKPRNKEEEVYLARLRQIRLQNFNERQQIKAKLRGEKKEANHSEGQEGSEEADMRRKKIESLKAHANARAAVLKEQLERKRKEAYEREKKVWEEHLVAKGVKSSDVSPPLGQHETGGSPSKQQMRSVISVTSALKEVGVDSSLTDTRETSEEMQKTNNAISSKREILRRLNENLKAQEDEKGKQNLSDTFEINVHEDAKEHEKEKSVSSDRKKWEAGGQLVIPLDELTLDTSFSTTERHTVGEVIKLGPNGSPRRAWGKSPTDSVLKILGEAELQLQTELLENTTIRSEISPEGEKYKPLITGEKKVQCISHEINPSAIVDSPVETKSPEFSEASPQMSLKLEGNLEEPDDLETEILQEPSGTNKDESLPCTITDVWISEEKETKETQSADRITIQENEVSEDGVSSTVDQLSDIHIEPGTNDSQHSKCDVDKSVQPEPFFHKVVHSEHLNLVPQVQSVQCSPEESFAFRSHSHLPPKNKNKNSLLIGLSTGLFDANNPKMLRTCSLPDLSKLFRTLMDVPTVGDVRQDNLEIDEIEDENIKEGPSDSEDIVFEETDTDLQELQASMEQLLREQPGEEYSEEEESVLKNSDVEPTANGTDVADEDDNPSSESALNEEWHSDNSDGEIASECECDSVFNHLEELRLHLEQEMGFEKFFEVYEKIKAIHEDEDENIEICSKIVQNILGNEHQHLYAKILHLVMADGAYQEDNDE

[3] = molecular target: T3, 3xFLAG-NEK1 D146A (KD) (human) (UniProt Q96PY6)
T3 sequence: T2 sequence with D146A, H261R

binding [1]: binds
B1: GFP-C21ORF2 (protein, UniProt O43822-1 1-256)
chain: MKLTRKMVLTRAKASELHSVRKLNCWGSRLTDISICQEMPSLEVITLSVNSISTLEPVSRCQRLSELYLRRNRIPSLAELFYLKGLPRLRVLWLAENPCCGTSPHRYRMTVLRTLPRLQKLDNQAVTEEELSRALSEGEEITAAPEREGTGHGGPKLCCTLSSLSSAAETGRDPLDSEEEATSGAQDERGLKPPSRGQFPSLSARDASSSHRGRNVLTAILLLLRELDAEGLEAVQQTVGSRLQALRGEEVQEHAE

binding [2]: binds | binding [3]: binds
B2: 3xHA-C21ORF2 (protein, UniProt O43822-1 1-256)
chain: B1 chain
